Structures are written as SMILES. The whole screen tested about 310,000 compounds, of which about 14,000 (4.5%) showed an effect of 50% or more. Effects have a minus sign here. This is one part of the list.
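Further: peak tail current of the secondary pulse compared with the same well before compound.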

In this assay the target is human ether-à-go-go-related gene (hERG) potassium channel (human, UniProt Q12809). Nature of the assay: primary screen, population patch clamp on CHO cells stably expressing hERG.
Chain of human ether-à-go-go-related gene (hERG) potassium channel (Q12809 whole entry, looked up): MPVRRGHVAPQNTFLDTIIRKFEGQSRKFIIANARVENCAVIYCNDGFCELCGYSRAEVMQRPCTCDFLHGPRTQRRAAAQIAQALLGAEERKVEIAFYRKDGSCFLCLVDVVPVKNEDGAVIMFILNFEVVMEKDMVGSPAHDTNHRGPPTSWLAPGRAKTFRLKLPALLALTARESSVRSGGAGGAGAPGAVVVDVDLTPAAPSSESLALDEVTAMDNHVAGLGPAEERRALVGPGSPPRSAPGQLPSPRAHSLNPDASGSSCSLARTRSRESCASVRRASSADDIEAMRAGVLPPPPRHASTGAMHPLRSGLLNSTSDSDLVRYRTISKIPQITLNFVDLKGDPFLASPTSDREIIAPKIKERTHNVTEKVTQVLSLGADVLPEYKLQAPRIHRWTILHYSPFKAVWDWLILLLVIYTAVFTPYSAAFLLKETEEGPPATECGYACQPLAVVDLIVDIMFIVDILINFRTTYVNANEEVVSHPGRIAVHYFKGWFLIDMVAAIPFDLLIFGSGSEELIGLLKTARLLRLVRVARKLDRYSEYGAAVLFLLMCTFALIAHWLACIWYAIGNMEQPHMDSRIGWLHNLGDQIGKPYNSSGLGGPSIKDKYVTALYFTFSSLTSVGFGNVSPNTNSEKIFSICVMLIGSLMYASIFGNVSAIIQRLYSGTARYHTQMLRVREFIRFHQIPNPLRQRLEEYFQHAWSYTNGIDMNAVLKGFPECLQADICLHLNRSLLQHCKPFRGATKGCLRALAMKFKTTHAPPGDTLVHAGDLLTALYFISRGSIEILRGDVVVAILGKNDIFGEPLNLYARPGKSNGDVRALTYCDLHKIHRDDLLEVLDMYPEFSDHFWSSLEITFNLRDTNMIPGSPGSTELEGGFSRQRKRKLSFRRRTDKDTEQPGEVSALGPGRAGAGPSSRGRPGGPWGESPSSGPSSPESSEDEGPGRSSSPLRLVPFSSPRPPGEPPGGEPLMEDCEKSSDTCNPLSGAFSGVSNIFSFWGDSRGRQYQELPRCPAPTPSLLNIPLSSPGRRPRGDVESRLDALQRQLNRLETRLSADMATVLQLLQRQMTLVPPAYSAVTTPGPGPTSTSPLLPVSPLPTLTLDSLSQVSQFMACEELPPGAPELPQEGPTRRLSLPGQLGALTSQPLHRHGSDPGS
For the compound `Cc1cc(C)c(S(=O)(=O)c2ccccc2)c(N2CCOCC2)n1`, the “hERG current change (%, negative = inhibition) at 10uM” value was 7.75%. With `CCC(C)NCC(=O)Nc1sc2c(c1C(N)=O)CCC2` (centres unmarked) the figure was -10.8%; with `COc1ccc(CN(C(=O)Cc2cccs2)C(C(=O)NC2CCCC2)c2ccncc2)cc1` (centres unmarked), -13.8%. With `O=C(Nc1ccc(F)c([N+](=O)[O-])c1)c1cccs1` the figure was -7.69%; with `Cc1ccccc1-c1nc(CN2CCCC(C(=O)NCCCN3CCOCC3)C2)c(C)o1` (centres unmarked), -7.84%; with `CCOc1ccc(NC(=S)N2CCC(NC(=O)c3ccccc3C)CC2)cc1`, -1.63%.

For `Cc1ccc(CN(Cc2ccco2)C(=S)NCC(=O)NCc2cccnc2)cc1`, the “hERG current change (%, negative = inhibition) at 10uM” value is recorded as -14.4%.

On to `CCCCn1cnc2c(cnn2-c2ccc(Cl)cc2)c1=O`, for which the “hERG current change (%, negative = inhibition) at 10uM” value is -0.569%. With `Cc1ccc(NC(=O)c2cccc(N3C(=O)C4C5C=CC(C5)C4C3=O)c2)cc1C` (centres unmarked) the figure was -7.07%; with `CCOC(=O)CN1C(=O)C(C)(C)Oc2ccc(C(=O)Nc3ccccc3)cc21`, 0.256%. On to `COCC(=O)Nc1nnc(COc2ccc(Cl)cc2)s1`, for which the “hERG current change (%, negative = inhibition) at 10uM” value was -0.556%.

On to `O=C(Cn1cc(C(=O)c2ccco2)c2ccccc21)NC1CCCC1`, for which the “hERG current change (%, negative = inhibition) at 10uM” value is reported as -2.49%. For `CCCN(CCC)C(=O)c1cn(C)c2ccc(S(=O)(=O)N3CCCC3)cc2c1=O` the value was 5.93%.

`O=C(NCCC1CCCCN1S(=O)(=O)c1ccc(F)cc1)C(=O)NCC1CCCO1` (centres unmarked): the “hERG current change (%, negative = inhibition) at 10uM” value is given as -38.8%.

On to `CC(=O)N1CCN(C(=O)c2ccc(Cl)c(NC(=O)c3cccs3)c2)CC1`, for which the “hERG current change (%, negative = inhibition) at 10uM” value is on record as -15.3%.

For the compound `CCc1ccc(CN2CCCC(C(=O)c3sccc3C)C2)o1` (centres unmarked), the “hERG current change (%, negative = inhibition) at 10uM” value was 2.99%. Turning to `Cc1ccc(-n2ncc3c2CCCC3NC(=O)CCc2c(C)noc2C)cc1C` (centres unmarked), the “hERG current change (%, negative = inhibition) at 10uM” value is given as -8.07%. With `O=C(NC1CCCC1)c1cnn2c(C(F)(F)F)cc(-c3ccc4c(c3)OCO4)nc12` the figure was -1.76%; with `O=C(NC1CCS(=O)(=O)C1)C12CC3CC(CC(C3)C1)C2` (centres unmarked), 0.374%; with `CCS(=O)(=O)N1CCC(C(=O)NC2CCCCC2)CC1`, 7.43%. On to `CCOC(=O)C1CCN(Cc2ccc(F)c(Br)c2)CC1`, for which the “hERG current change (%, negative = inhibition) at 10uM” value is -8.18%. For `O=C(CCCc1nc2ccccc2s1)NNC(=O)CCN1CCN(Cc2ccccc2)CC1` the value was -39.2%; for `N/C(Cc1cccs1)=N\OC(=O)COc1ccccc1Cl`, 2.85%; for `O=C(O)C1CC=CCC1C(=O)NCCCN1CCCC1=O` (centres unmarked), 10.1%. Consider `COc1ccccc1NC(=O)C(C(C)C)N1C(=O)c2ccccc2C1=O` (centres unmarked), for which the “hERG current change (%, negative = inhibition) at 10uM” value worked out at 17.4%. Regarding `CN1CC(=O)N(CC(=O)NCCc2ccc(F)cc2)c2ccccc2C1=O`, the “hERG current change (%, negative = inhibition) at 10uM” value is given as -4.64%. On to `CCCCCn1c(=O)[nH]c2cc(C(=O)NC3CCN(Cc4ccccc4)CC3)ccc2c1=O`, for which the “hERG current change (%, negative = inhibition) at 10uM” value is on record as 15.6%. For the compound `CCOC(=O)c1c(NC(N)=O)sc(C)c1C`, the “hERG current change (%, negative = inhibition) at 10uM” value is reported as 0.795%.

On to `CCOC(=O)C1=C(C)C2C3C(=O)N(c4ccc(C)cc4C)C(=O)C3C1(C)C1C(=O)N(c3ccc(C)cc3C)C(=O)C21` (centres unmarked), for which the “hERG current change (%, negative = inhibition) at 10uM” value stood at 0.443%. With `COc1ccc2[nH]cc(CCNS(=O)(=O)c3ccc(C)cc3)c2c1` the figure was -38.1%. For `CCOc1ccccc1N(CC(=O)NCCSc1ccccn1)S(=O)(=O)c1ccc(C)cc1` the value was -27.8%. Turning to `Cc1cc(-c2n[nH]c(=S)n2/N=C/C=C/c2ccco2)n[nH]1`, the “hERG current change (%, negative = inhibition) at 10uM” value stood at 10.7%.

For the compound `CC/C(=N\NC(=O)OC)c1ccc(OC(F)F)cc1`, the “hERG current change (%, negative = inhibition) at 10uM” value came out at 22%.

Consider `C/C(=N\NC(=O)c1nc2ccccn2c1C)c1ccc2c(c1)OCO2`, for which the “hERG current change (%, negative = inhibition) at 10uM” value was -18.5%. For `CCN1CCN(C(c2nnnn2Cc2ccc3c(c2)OCO3)C(C)C)CC1.Cl` (centres unmarked) the value was -41.6%; for `COc1ccc(-c2nc3cc(C)ccn3c2NCc2ccc3c(c2)OCO3)cc1`, -67.5%; for `CC(=O)NC1=NC(=O)/C(=C/N2CCOCC2)S1`, 6.49%. For `Cn1cccc1C(=O)NCC1CCCCC1` the value was 14.1%; for `Cc1cc(/C=c2/sc3nc4ccccc4n3c2=O)c(C)n1-c1ccccn1`, 4.27%; for `Cc1cc(NC(=O)Cn2nc(C)c([N+](=O)[O-])c2C)no1`, 2.93%.

In the case of `COc1cccc(-n2c(SC3CCOC3=O)nc3ccccc3c2=O)c1` (centres unmarked), the “hERG current change (%, negative = inhibition) at 10uM” value was -12.1%.

Take `C=C(C)CSc1nnc([C@@H](N)Cc2ccccc2)o1.Cl`: the “hERG current change (%, negative = inhibition) at 10uM” value was 9.85%. `COc1ccc(-n2cnc3c(sc4nc(N5CCOCC5)c5c(c43)CCCC5)c2=O)cc1`: the “hERG current change (%, negative = inhibition) at 10uM” value was 21.3%. In the case of `O=C(OCc1ccccc1Cl)c1cccnc1Cl`, the “hERG current change (%, negative = inhibition) at 10uM” value is -14.4%.

(Values after article PMC4336329 (PLoS ONE, 2015).)
